In PubChem BioAssay (NCATS):
Records with an inconclusive call do not appear. The call rests on the fitted dose curve; in most records, active means well fitted inhibition curve with a large enough effect; inconclusive means small, poorly fitted or top-dose-only effect; inactive means no such curve, though single readings can be large or run the other way. A structure can be active in one record and inactive in another. For part of its entries the source gives two or more results. Only these are listed. There may be further records. Results that share an entry are repeated measurements across runs, samples, wells, individuals or studies. What stands in brackets tells the records apart. Letters hold for one entry only.

Columns and labels:
[1] = system: Zika virus NS2B-NS3 protease (linked); experiment: 384 well plate NINDS AMC confirmatory qHTS for Zika virus inhibitors (AID 1347163); further: nearly all actives have a fitted effect of over 50% in size
How it was run: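 Linked NS2B-NS3 protease (final 5 nM, 30 nM or 60 nM) was preincubated with compounds (final up to 1 mM) for ~15 minutes. Ac-VKTGKR-AMC substrate (final 30 microM) then reacted for 25 minutes at room temperature in the dark. Fluorescence (ex 355/em 460 nm) was normalized to no-enzyme and no-inhibitor controls.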

[2] = Primary qHTS for inhibitors of La Crosse Virus (LACV) - induced cell death in SH-SY5Y cells (AID 1508616)
Description: Assay Provider: Karin Peterson Ph.D.
National Institute of Allergy and Infection Diseases, National Institute of Health
La Crosse Virus (LACV) is a California serogroup mosquito-borne arbovirus, family Peribunyaviridae, which is an endemic pathogen in North America and can induce a rare, life-threatening neurological disease in children. LACV was first isolated in the early 1960s, from a summer "rural encephalitis" case in La Crosse, Wisconsin, USA. Since then, LACV encephalitis cases have been found in more than twenty states, with most cases in the Mississippi and Ohio River basins. The life cycle of LACV is maintained between the vector, the eastern tree-hole mosquito Aedes triseriatus, and vertebrate hosts including eastern gray squirrels (Sciurus carolinensis) and chipmunks (Tamiasstriatus grinseus). […] Most LACV infections in humans are asymptomatic or induce mild clinical symptoms of fever, headache, lethargy and vomiting. However, in some cases LACV can cause severe neuroinvasive disease, including encephalitis, meningitis, and meningoencephalitis, requiring hospitalization. […]
8. Detection; Luminescence; View […]
6. Dispense 24 microL/well of ATPLite 1step Luminescence assay system (PerkinElmer). […]
8. Read luminescence signal (Viewlux plate reader, PerkinElmer). […]
Potency means the concentration at half of the fitted maximal effect.

Row | Compound | Potency [1] | Potency [2]
1 | CN(C)[C@@H]1C(=O)C(C(N)=O)=C(O)[C@@]2(O)C(=O)C3=C(O)c4c(O)ccc(Cl)c4[C@@H](O)[C@H]3C[C@@H]12 | active: 100 µM [sample A] and inactive [sample B] | –
2 | CSc1ccc(C(=O)c2[nH]c(=O)[nH]c2C)cc1 | – | inactive [sample A] and active: 447 nM [sample B]
